# Reference: PubChem BioAssay AID588453 (National Center for Advancing Translational Sciences (NCATS), 2011)
# The whole screen tested about 390,000 compounds, of which about 4,000 (1%) were called active. The shares of active, inactive and inconclusive entries below differ from those in the screen. Calls come from the whole dose curve; as a rule, active = well fitted inhibition curve with a large enough effect; inconclusive = small, poorly fitted or top-dose-only effect; inactive = no such curve, though single readings can be large or run the other way. Potencies of inconclusive entries are doubtful fits and often do not repeat.
# Biological target: Thioredoxin reductase 1, cytoplasmic (Rattus norvegicus) (UniProt O89049)
# Test: qHTS Assay for Inhibitors of Mammalian Selenoprotein Thioredoxin Reductase 1 (TrxR1): qHTS; note: nearly all actives have a fitted effect of over 65% in size
# Settings: recombinant rTrxR1, NADPH fluorescence consumption, selenite substrate; series mostly up to 114 µM
# Method in brief: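 Rat TrxR1 (90 nM in the dispensed reagent) was pre-reduced with 400 uM NADPH for 5 min at room temperature, then incubated with compound for 15 min. After 400 uM selenite was added, NADPH fluorescence (Ex 340/Em 450 nm) was followed for 8 min.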
# Potency is the fitted concentration of half-maximal effect; tags give direction and shape of the fitted curve.
# UniProt O89049, sequence (O89049 whole entry, looked up): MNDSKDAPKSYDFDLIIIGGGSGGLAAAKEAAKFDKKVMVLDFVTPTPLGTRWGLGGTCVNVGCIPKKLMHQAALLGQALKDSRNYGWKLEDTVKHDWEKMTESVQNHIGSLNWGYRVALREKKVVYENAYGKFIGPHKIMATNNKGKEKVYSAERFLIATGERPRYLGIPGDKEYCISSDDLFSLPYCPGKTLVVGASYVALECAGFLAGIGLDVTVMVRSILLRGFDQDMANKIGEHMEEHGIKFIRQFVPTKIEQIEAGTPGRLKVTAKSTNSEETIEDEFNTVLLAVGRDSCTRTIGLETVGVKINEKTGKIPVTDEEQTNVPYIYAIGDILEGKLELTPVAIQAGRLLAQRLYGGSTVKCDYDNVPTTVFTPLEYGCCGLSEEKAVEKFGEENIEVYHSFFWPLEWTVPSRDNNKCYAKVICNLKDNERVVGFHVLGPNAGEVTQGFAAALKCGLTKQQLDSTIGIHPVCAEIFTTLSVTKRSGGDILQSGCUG
row,SMILES,Potency
1,O=C(NCc1ccccc1)c1ccc(CS(=O)Cc2ccc(Cl)cc2)o1 (centres undefined),"inconclusive: 56.2 µM [inhibitor, partial curve]"
2,Oc1cccc(/C=N/c2c(-c3ccco3)nc3ccccn23)c1,"inconclusive: 2.82 µM [inhibitor, single point]"
3,COCOc1cc(O)c(C(=O)/C=C/c2ccccc2)c(OCOC)c1,"inconclusive: 79.4 µM [inhibitor, partial curve, poor fit]"
4,CCOc1ccc(/C=C/c2nc(C#N)c(Nc3ccc(OCC)cc3)o2)cc1,inactive
5,COCCCn1c(CCC(=O)O)ccc1-c1cccs1,"inconclusive: 39.8 µM [inhibitor, single point]"
6,CCN(CC)c1ccc(/C=C2\C=Cc3ccccc32)cc1,inactive
7,CC(C)(C)OC(=O)C1=C(CO)CS[C@@H]2[C@H](NC(=O)Cc3ccccc3)C(=O)N12,"inconclusive: 56.2 µM [inhibitor, partial curve]"
8,COc1ccc2c(c1)C(NC(C)=O)C(=O)N2C (centres undefined),inactive
9,CCOC(=O)c1c(CC(C)C)csc1/N=C/C1C(=O)CCCC1=O,inactive
10,COc1ccc(OC)c(C(=O)CSc2nnc(-c3cccnc3)n2C)c1,"inconclusive: 15.8 µM [inhibitor, partial curve, poor fit]"
11,O/N=C(/CI)c1ccc2ccccc2c1,"inconclusive: 14.1 µM [inhibitor, partial curve, poor fit]"
12,Cc1nc2sc(C(c3cccs3)N3CCN(C(=O)c4ccco4)CC3)c(O)n2n1 (centres undefined),"inconclusive: 31.6 µM [inhibitor, partial curve, poor fit]"
13,C/C(CC(=O)NC(C)(C)C)=N\NC(=O)c1ccccc1N,"inconclusive: 20 µM [inhibitor, partial curve, poor fit]"
14,COC(=O)c1[nH]c(C)c(/C(O)=C2\C(=O)C(=O)N(CCCN3CCOCC3)C2c2ccccn2)c1C (centres undefined),active: 25.1 µM
15,O=C(O)C1Nc2c(C(F)(F)F)ccc(Cl)c2C2C=CCC12 (centres undefined),"inconclusive: 28.2 µM [inhibitor, single point]"
16,COc1ccc(N2C(=O)CC(n3c(CCCCO)nc4ccccc43)C2=O)cc1 (centres undefined),"inconclusive: 12.6 µM [inhibitor, partial curve, poor fit]"
17,COc1ccc(-c2c(C#Cc3ccccc3)c3ccccc3n2C)cc1,"inconclusive: 25.1 µM [inhibitor, single point]"
18,O=c1c2oc3ccccc3c2[nH]c(=S)n1-c1ccc(F)cc1,"inconclusive: 12.6 µM [inhibitor, partial curve, poor fit]"
19,COc1cccc(Oc2nnnn2-c2ccccc2)c1,inactive
20,Cc1ccc(CN(C(=O)COc2ccc(Cl)cc2Cl)C2CCS(=O)(=O)C2)o1 (centres undefined),inactive
21,O=C(c1ccc([N+](=O)[O-])o1)N1CCN(c2nc3ccc(F)cc3s2)CC1,"inconclusive: 10 µM [inhibitor, partial curve, poor fit]"
22,Cc1ccc(C)c(Nc2nc3nonc3nc2Nc2cccc(C)c2C)c1,inactive

row,SMILES,Potency
1,COC(=O)c1c(NC(=O)CN2CCC3(O)CCCCC3C2c2cc(OC)ccc2OC)sc(C)c1C (centres undefined),inactive
2,CCN(CC)c1cc(C)c2cc(NC(=O)c3ccc(Br)o3)ccc2n1,"inconclusive: 25.1 µM [inhibitor, partial curve, poor fit]"
3,Cc1ccc(C(=O)NC(NC(=S)Nc2ccc(S(N)(=O)=O)cc2)C(Cl)(Cl)Cl)cc1 (centres undefined),inactive
4,Cc1ccccc1CN1CCNC(=O)C1CC(=O)O (centres undefined),active: 70.8 µM
5,c1ccc(Nc2nc(Nc3ccccc3)nc(N3CCNCC3)n2)cc1,"inconclusive: 79.4 µM [inhibitor, single point]"
6,COC(=O)c1ccc(CSc2nc3ccccc3c(=O)n2-c2cccc(OC)c2)o1,"inconclusive: 8.91 µM [inhibitor, full curve]"
7,CCCN1CCc2c(sc(NC(=O)c3ccc(S(=O)(=O)N4CCN(C(=O)OCC)CC4)cc3)c2C(N)=O)C1,inactive
8,O=C(C=Cc1cccc(O)c1)c1ccccc1O,"inconclusive: 17.8 µM [inhibitor, partial curve, poor fit]"
9,CCCn1c2ccc(F)cc2c2nnc(SCCN3CCOCC3)nc21,"inconclusive: 35.5 µM [inhibitor, partial curve]"
10,O=C(O)CCc1ccc(-c2cccs2)n1CC(=O)Nc1ccccc1C(F)(F)F,"inconclusive: 44.7 µM [inhibitor, partial curve, poor fit]"
11,CCc1nnc(N/N=C/c2ccccc2F)n1N,inactive
12,Cc1ccc(S(=O)(=O)NCc2ccc(C(=O)N3CCN(Cc4ccccc4)CC3)cc2)cc1,"inconclusive: 56.2 µM [inhibitor, partial curve, poor fit]"
13,Cc1cccc(C(=O)Nc2ccc(C(=O)N/N=C/c3ccco3)cc2)c1,"inconclusive: 50.1 µM [inhibitor, partial curve]"
14,COc1ccccc1N1CC(O)=C(c2nc3ccccc3c(=O)[nH]2)C1=N,"inconclusive: 25.1 µM [inhibitor, single point]"
15,CC(C)(C)S(=O)N1Cc2cc(CO)cc(-c3ccccc3)c2[C@@H]1CCO (some centres undefined),"inconclusive: 89.1 µM [inhibitor, partial curve, poor fit]"
16,CN(C)c1ccc(/C=N/N2CCN(Cc3ccccc3Cl)CC2)cc1,"inconclusive: 79.4 µM [inhibitor, single point]"
17,CCN(CC)c1ccc(/C=C2\C(=N)N3N=C(CC(=O)N4CCOCC4)SC3=NC2=O)cc1,"inconclusive: 50.1 µM [inhibitor, partial curve, poor fit]"
18,C=CCOc1ccc(/C(O)=C2\C(=O)C(=O)N(CCCOC)C2c2ccncc2)cc1 (centres undefined),"inconclusive: 39.8 µM [inhibitor, partial curve, poor fit]"
19,CC(C)(C)OC(=O)N1CC=C2C(C#N)=C(N)C(C#N)(C#N)C(c3cccs3)C2C1 (centres undefined),"inconclusive: 44.7 µM [inhibitor, partial curve, poor fit]"
20,CC(C)OC(=O)CN1C(=O)S/C(=C/c2ccc(N3CCCCC3)o2)C1=O,"inconclusive: 1.78 µM [inhibitor, full curve, poor fit]"
21,O=C(Nc1ccc([N+](=O)[O-])cc1Cl)c1ccccc1O,"inconclusive: 50.1 µM [inhibitor, partial curve]"
22,CCc1sc(/C=C(/C#N)C(N)=S)cc1[N+](=O)[O-],"inconclusive: 70.8 µM [inhibitor, single point]"

row,SMILES,Potency
1,COc1ccc(N2CCN(C(=O)c3ccc4c(Cl)c5c(nc4c3)CCCC5)CC2)cc1,"inconclusive: 39.8 µM [inhibitor, single point]"
2,C/C(CC(=O)Nc1cccc(Cl)c1)=N\NC(=O)Cc1ccc(Cl)cc1,"inconclusive: 56.2 µM [inhibitor, partial curve]"
3,Cc1ccc(CNC(=O)C2CCN(S(=O)(=O)c3ccc4c(c3)CC(C)N4C(=O)C3CCC3)CC2)o1 (centres undefined),"inconclusive: 70.8 µM [inhibitor, single point]"
4,Cc1ccc(NC(=S)N/N=C2\CCCCC2C)cc1 (centres undefined),"inconclusive: 25.1 µM [inhibitor, single point]"
5,CCCc1cc(C(=O)Nc2c(C)nn(Cc3ccc(Cl)c(Cl)c3)c2C)no1,inactive
6,COC(CN(C(=O)CCl)C(C(=O)NC1CCCC(C)C1C)c1ccc(C)cc1)OC (centres undefined),active: 56.2 µM
7,O=C(COC(=O)/C=C/c1ccccc1[N+](=O)[O-])NC1CCS(=O)(=O)C1 (centres undefined),inactive
8,Cc1ccc2nc(NCCO)nc(-c3ccccc3)c2c1,"inconclusive: 89.1 µM [inhibitor, partial curve, poor fit]"
9,COCCn1c(=N)c(C(=O)NCc2ccco2)cc2c(=O)n3cc(C)ccc3nc21,"inconclusive: 100 µM [inhibitor, single point]"
10,O=C(Nc1ccc2nc(-c3ccco3)c(-c3ccco3)nc2c1)N1CCCC1,"inconclusive: 2.51 µM [inhibitor, full curve]"
11,Cc1ccc(-n2c(-c3ccco3)nc3c(cnn3-c3ccccc3C)c2=O)cc1,"inconclusive: 89.1 µM [inhibitor, single point]"
12,COC(=O)c1ccc(-n2c(C)cc(C(=O)CCl)c2C)cc1,"inconclusive: 50.1 µM [inhibitor, partial curve, poor fit]"
13,CC(C)(C)C(=O)N(Cc1nc2ccccc2c(=O)[nH]1)Cc1cccs1,"inconclusive: 3.98 µM [inhibitor, single point]"
14,CCN1CSC(=S)N(Cc2ccccc2)C1,"inconclusive: 39.8 µM [inhibitor, partial curve, poor fit]"
15,CC1=NN(c2ccc(C)cc2C)C(=O)C1C(c1ccccc1)C1C(=O)N(c2ccc(C)cc2C)N=C1C (centres undefined),"inconclusive: 50.1 µM [inhibitor, partial curve, poor fit]"
16,Cc1ccccc1-n1c(=O)cc(N2CCN(C(=O)c3ccco3)CC2)[nH]c1=O,"inconclusive: 31.6 µM [inhibitor, partial curve, poor fit]"
17,COc1ccccc1Oc1coc2c(CN(C)C)c(O)ccc2c1=O,inactive
18,COCC(=O)N(Cc1ccco1)c1nnc(C2CCOC2)s1 (centres undefined),"inconclusive: 35.5 µM [inhibitor, full curve]"
19,Cc1ccccc1C(=O)N/N=C/c1ccc(Sc2ccccn2)o1,"inconclusive: 79.4 µM [inhibitor, partial curve, poor fit]"
20,Cc1ccc(OCCC(=O)OCC(=O)Nc2cc(S(=O)(=O)N(C)C)ccc2C)cc1,"inconclusive: 56.2 µM [inhibitor, partial curve, poor fit]"
